Laboratory results published in publication PMC4336329 (PLoS ONE, 2015).
The whole screen tested about 310,000 compounds, of which about 14,000 (4.5%) showed an effect of 50% or more. The effect is printed as a negative number. This is one part of the list.

Each molecule was assayed against human ether-à-go-go-related gene (hERG) potassium channel (human, UniProt Q12809) (assay: primary screen, population patch clamp on CHO cells stably expressing hERG).
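Note: peak tail current of the secondary pulse compared with the same well before compound.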

Chain of human ether-à-go-go-related gene (hERG) potassium channel (Q12809 whole entry, looked up): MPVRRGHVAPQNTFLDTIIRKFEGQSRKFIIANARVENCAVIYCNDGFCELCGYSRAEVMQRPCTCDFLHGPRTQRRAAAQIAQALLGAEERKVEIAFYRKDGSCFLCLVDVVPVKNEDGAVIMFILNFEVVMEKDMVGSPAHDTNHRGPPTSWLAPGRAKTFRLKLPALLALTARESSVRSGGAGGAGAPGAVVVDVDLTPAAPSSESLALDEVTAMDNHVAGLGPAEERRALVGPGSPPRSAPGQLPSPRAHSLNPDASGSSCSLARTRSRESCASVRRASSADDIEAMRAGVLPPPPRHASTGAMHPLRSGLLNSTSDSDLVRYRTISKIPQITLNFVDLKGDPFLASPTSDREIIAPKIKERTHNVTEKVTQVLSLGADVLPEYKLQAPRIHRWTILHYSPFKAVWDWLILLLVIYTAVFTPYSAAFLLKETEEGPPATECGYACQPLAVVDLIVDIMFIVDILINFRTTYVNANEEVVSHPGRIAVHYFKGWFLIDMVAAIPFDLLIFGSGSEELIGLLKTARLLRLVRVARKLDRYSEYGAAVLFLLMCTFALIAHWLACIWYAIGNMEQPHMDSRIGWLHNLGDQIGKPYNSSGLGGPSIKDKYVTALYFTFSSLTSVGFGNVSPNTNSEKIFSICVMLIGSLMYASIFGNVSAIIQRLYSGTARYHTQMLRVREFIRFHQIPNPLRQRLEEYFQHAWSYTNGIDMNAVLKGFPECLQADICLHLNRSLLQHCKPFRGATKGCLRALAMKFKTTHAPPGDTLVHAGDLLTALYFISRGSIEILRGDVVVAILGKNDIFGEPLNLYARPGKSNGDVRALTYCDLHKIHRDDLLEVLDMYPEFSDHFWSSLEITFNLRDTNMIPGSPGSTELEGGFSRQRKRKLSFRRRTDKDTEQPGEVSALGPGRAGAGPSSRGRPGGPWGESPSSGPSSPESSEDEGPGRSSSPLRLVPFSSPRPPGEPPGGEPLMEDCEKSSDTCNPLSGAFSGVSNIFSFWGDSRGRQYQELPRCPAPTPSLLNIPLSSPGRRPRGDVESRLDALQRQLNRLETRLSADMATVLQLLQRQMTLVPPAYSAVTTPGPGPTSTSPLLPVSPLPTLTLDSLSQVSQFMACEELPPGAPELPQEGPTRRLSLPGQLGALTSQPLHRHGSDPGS

SMILES	hERG current change (%, negative = inhibition) at 10uM [%]
Cc1ccc(-n2nc(C)c3cc(C(=O)O)sc32)cc1	11.7
NC(=O)c1cc(N2C(=O)C=CC2=O)ccc1Cl	1.79
O=C(Nc1ncc2c(n1)-c1ccccc1CC2)c1ccccc1	-26.3
Cc1ccc(S(=O)(=O)CC(=O)Nc2ccc3nc(C)sc3c2)cc1	-2.1
CCCCC1CCC(C(=O)N(C)CC(=O)Nc2cccc(OC)c2)CC1 (stereo not shown)	19.4
CC(C)(C)c1ccc(/C=C/C(=O)NCCCn2ccnc2)cc1	-46.5
Cc1cc2oc(C(=O)N(Cc3ccccc3)c3ccccn3)cc(=O)c2cc1Cl	6.98
CCN1CCc2nc3ccccc3c(C(=O)Nc3ccc(F)cc3)c2C1	-74.5
CC1(C(=O)O)CCC(C(=O)Nc2ccccc2)C1(C)C (stereo not shown)	19.9
COC(=O)Nc1cccn(Cc2c(Cl)cccc2Cl)c1=O	0.735
O=C(Nc1nnc(C2CC2)s1)C1Cc2ccccc2CN1S(=O)(=O)c1cccs1 (stereo not shown)	1.33
CCOc1ccc(C(=O)NCC(=O)NC(C)CCc2ccccc2)cc1OCC (stereo not shown)	-34.9
CCCCOc1cccc(C2C(C(=O)c3cccs3)=C(O)C(=O)N2Cc2cccnc2)c1 (stereo not shown)	30.4
CC1(C)CC(=O)C=C(c2cccs2)C1	-8.45
CN1C(=O)C(=O)/C(=C(/O)c2ccccc2)C1c1ccc(Br)cc1 (stereo not shown)	13.6
CS(=O)(=O)N1CCN(c2ccc(C(=O)N3CCOCC3)cc2[N+](=O)[O-])CC1	0.387
COc1cc(OC)c2c3c(c(C4CCCCC4)nc2c1)CCC3	8.05
CC(C)c1ccc(C2C(C(=O)c3ccco3)=C(O)C(=O)N2CC2CCCO2)cc1 (stereo not shown)	17.1
Cc1cccc(CCN2C(Nc3ccccc3)=NC[C@@H]2C)c1	-23
COC(=O)C(C(=O)Nc1nc2ccccc2s1)C1CCCC1 (stereo not shown)	2.83
O=C(O)c1cc2[nH]c3c(c2cc1Cl)CCCC3	-26.8
O=C(Nc1nncs1)C1CC(=O)N(C2CCCC2)C1 (stereo not shown)	0.553

SMILES	hERG current change (%, negative = inhibition) at 10uM [%]
Cn1ncnc2c(=O)n(C)c(=O)nc1-2	-2.67
CCCCCCCCCCOC(=O)Cn1c(COc2ccccc2OC)[n+](C)c2ccccc21.[Cl-]	-77.3
CS(=O)(=O)Nc1ccc(C(=O)Nc2ccc(S(=O)(=O)N3CCCCC3)cc2)cc1	-13.8
CCSCCOC(=O)C1=C(C)N(C)C(=O)NC1c1cc(OC)ccc1OC (stereo not shown)	-17.5
CCCCCCNC(=O)CCCCCNS(=O)(=O)c1ccc(OC)cc1	-32.3
CCC(C(=O)NN1C(=O)c2ccccc2C1=O)c1ccccc1 (stereo not shown)	10.4
Cc1nnc(NC(=O)C2CCN(C(=O)c3ccco3)CC2)s1	13.4
COCCN1C(=O)C(=O)/C(=C(/O)c2ccc(S(=O)(=O)N3CCCCC3)cc2)C1c1ccc(OC)cc1 (stereo not shown)	20.4
Cc1cc(C)cc(OCCCCCNCCO)c1	-15.1
Cc1ccccc1NC(=O)CSC(N)=O	18.3
NC(=O)CNC(=O)[C@@H]1CC2(CC(c3cccc(Br)c3)=NO2)CN1C(=O)c1ccc(Br)cc1 (stereo partly shown)	1.33
COc1ccc(S(=O)(=O)N(C)C)cc1NC(=O)c1ccc2c(c1)NC(=O)C(C)S2 (stereo not shown)	12.7
Cc1cc(C(F)(F)F)nc(CCNCc2c(C(=O)N3CCCC3)nc3ccccn23)n1	-14.4
CC(C)CC(O)(CC(C)C)C(=O)NNc1ccccc1	7.57
COc1ccc(CNC(=O)c2cccc3c2C(=O)N(Cc2cccnc2)C3)cc1	-38.6
O=C(CSc1nnc(CNC(=O)c2cccs2)o1)Nc1ccc2c(c1)OCO2	13.5
Cc1ccc(NCc2nnc(SC(C)C(=O)N/N=C/c3ccc(C)o3)n2-c2ccccc2)cc1 (stereo not shown)	-6.08
COc1ccc(-c2noc(C3CCCN(C(=O)c4ccccc4OC)C3)n2)cc1OC (stereo not shown)	5.62
NNC(=O)CNC(c1ccccc1)c1cc(Br)ccc1NC(=O)CCN1CCOCC1 (stereo not shown)	3.67
CCN=C1SC(CC(=O)NCCc2ccc(OC)cc2)C(=O)N1CC (stereo not shown)	17.5
CC/C(=N\NC(=O)c1c(-c2ccccc2)noc1C)c1ccc(C)o1	-0.958
O=C(CSc1ncccc1C(=O)O)c1cccc(C(F)(F)F)c1	2.44

SMILES	hERG current change (%, negative = inhibition) at 10uM [%]
COc1ccc(CC(=O)Nc2nc3ccccc3s2)cc1S(=O)(=O)N1CCOCC1	-65.9
Cc1cc(-n2cnnn2)cc(C)c1S(=O)(=O)N(C)c1ccccc1	-17.2
CCOn1c(=O)c(-c2cccs2)[n+]([O-])c2ccccc21	-4.14
Cn1c(O)c(C(=Nc2ccccc2)SCc2ccc(Cl)cc2)c(=O)n(C)c1=O	11.4
Cn1cnnc1SCc1ccc(F)c2ccccc12	-8.61
CC(=O)c1sc(-c2ccccc2)cc1NS(=O)(=O)c1ccccc1	15.1
O=C(CCn1cnnn1)Nc1ccc(Cl)cc1Cl	9.42
CC1CC(C)CN(c2nc(NCc3ccco3)nc(N)c2[N+](=O)[O-])C1 (stereo not shown)	-27.4
CCCCN1C(=O)/C(=C/C=C2\N(C)c3ccccc3C2(C)C)SC1=S	15.6
O=C(OCCN1C(=O)c2ccccc2C1=O)c1cc(=O)[nH]c2ccccc12	6.81
CC(O)/C=C/c1cccc[n+]1C.[I-] (stereo not shown)	8.46
O=[N+]([O-])c1ccc(Cl)cc1NCC1CCCO1 (stereo not shown)	-5.08
CCOC(=O)c1c(C)[nH]c(C(=O)OC(C)C(=O)NCc2ccccc2)c1C (stereo not shown)	17.4
CC(C)(C)OC(=O)N1CCC(c2c(C(=O)NC3CC3)cnn2-c2ccc(Cl)cc2)CC1	-3.61
COc1cc(/C=C2/C(=N)N3C(=NC2=O)SN=C3S(C)(=O)=O)ccc1OS(=O)(=O)c1ccccc1	2.2
O=C(O)c1ccc(Sc2nnnn2-c2ccccc2)c([N+](=O)[O-])c1	-2.2
COc1ccc(NC(=O)C2CCCC2)cc1	14
O=[N+]([O-])c1ccc(O)c(NC(=S)Nc2ccccc2)c1	23.9
COc1ccc(C(CNC(=O)C(=O)NC2CCCCC2)N2CCN(C)CC2)cc1 (stereo not shown)	-27.7
COc1cc(C2NC(=O)NC(O)(C(F)(F)F)C2C(=O)c2ccc(Cl)cc2)ccc1O (stereo not shown)	17.2
COc1ccc(Cl)cc1NC(=O)CN(C)C(=O)Cc1ccsc1	-30
N#CCC(=O)N/N=C/c1cccc(Oc2ccccc2)c1	-4.8

SMILES	hERG current change (%, negative = inhibition) at 10uM [%]
CCN(C(=O)COc1ncnc2sccc12)c1ccccc1	63.8
Cc1cccc2c1=NC(=O)/C(=C/c1c(O)[nH]c(=O)[nH]c1=O)C=2	0.296
Cc1cccc(C)c1NC(=O)CN(C)CC(=O)Nc1sc2c(c1C(N)=O)CCC2	-33.9
CC(NC(=O)c1ccccc1F)c1nnc(SCC(=O)NC2=NCCS2)n1C (stereo not shown)	22.3
CCCCCN(C(=O)CCC(=O)OCc1cc(C)ccc1C)c1c(N)n(CCCC)c(=O)[nH]c1=O	-49.7
O=C(C(c1ccccc1)c1ccccc1)N1CCCc2ccccc21	11.2
Cc1ccnc(NC(=O)C2CCCN(c3ncnc4c3nc3n4CCCCC3)C2)c1 (stereo not shown)	-45.6
CC1CCN(c2ccc(C(=O)N3CCOCC3)cc2[N+](=O)[O-])CC1	-0.762
Cc1cccc(NC(=O)CN2CCN(C(=O)C3CCN(C(=O)/C=C/c4ccccc4)CC3)CC2)c1C	-73.9
CC(C)Nc1nc(Cl)nc(N(C#N)CN2C(=O)c3ccccc3S2(=O)=O)n1	-1.39
CC(=O)Nc1ccc(S(=O)(=O)N2CCN(S(=O)(=O)c3ccccc3)CC2)cc1	11.7
CC1CN(C(=O)CCc2cc(C(C)(C)C)c(O)c(C(C)(C)C)c2)CC(C)O1 (stereo not shown)	-5.44
CCOC(=O)Cn1c(=O)oc2cc(S(=O)(=O)NCCCc3ccccc3)ccc21	-23.6
CCOc1ncccc1C(=O)OCc1ccccc1	18.9
Cc1cc(C(=O)N2CCN(Cc3ccccc3)CC2)ccc1[N+](=O)[O-]	-32
COC(=O)CSc1nccc(-c2cccs2)n1	17.3
CNc1ccc(SC#N)cc1.Cl	27.6
CSc1ccc(/C=N/NC(=O)CNc2cccc3ccccc23)cc1	8.83
C/C(CC(=O)Nc1cc(C)ccn1)=N\NC(=O)c1cccc(F)c1	12.7
CCOc1ccc2nc(SCC(=O)NC3CCS(=O)(=O)C3)[nH]c2c1 (stereo not shown)	6.47
CSc1nnc(N2C(=O)C(O)=C(C(=O)c3ccco3)C2c2ccccc2)s1 (stereo not shown)	6.85
C/C(N)=C(/C#N)C(=O)COC(=O)c1cc(C)n(-c2ccc(F)cc2)c1C	-9.29
